This note sets out measurements from publication PMC7977458, “The CK1δ/ε-AES axis regulates tumorigenesis and metastasis in colorectal cancer” (Theranostics, 2021).

Protein sequences, listed by entry. Tags and fused reporters are not part of them. Lines headed by an entry give the natural chain unless they say otherwise; changes in a name come on top.
UniProt Q13309: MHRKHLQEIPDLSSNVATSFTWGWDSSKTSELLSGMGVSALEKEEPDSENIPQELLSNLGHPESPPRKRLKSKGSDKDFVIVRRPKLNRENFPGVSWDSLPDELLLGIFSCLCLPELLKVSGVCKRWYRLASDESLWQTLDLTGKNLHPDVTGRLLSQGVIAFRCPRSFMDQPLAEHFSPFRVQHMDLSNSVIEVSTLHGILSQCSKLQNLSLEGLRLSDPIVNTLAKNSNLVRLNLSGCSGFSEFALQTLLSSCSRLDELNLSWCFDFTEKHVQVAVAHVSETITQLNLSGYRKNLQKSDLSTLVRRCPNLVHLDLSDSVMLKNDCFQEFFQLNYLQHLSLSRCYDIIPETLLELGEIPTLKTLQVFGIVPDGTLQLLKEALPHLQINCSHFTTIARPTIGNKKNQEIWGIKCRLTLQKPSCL
UniProt P48729: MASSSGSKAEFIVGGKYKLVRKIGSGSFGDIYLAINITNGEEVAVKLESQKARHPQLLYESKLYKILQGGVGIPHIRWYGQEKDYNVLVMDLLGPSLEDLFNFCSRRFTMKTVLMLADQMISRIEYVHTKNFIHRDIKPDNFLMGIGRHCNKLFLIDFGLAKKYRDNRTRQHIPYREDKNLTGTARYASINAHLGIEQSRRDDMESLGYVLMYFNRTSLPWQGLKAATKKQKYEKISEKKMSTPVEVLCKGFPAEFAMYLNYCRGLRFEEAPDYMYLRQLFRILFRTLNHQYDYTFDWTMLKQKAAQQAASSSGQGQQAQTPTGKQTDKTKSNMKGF
UniProt Q9HCP0: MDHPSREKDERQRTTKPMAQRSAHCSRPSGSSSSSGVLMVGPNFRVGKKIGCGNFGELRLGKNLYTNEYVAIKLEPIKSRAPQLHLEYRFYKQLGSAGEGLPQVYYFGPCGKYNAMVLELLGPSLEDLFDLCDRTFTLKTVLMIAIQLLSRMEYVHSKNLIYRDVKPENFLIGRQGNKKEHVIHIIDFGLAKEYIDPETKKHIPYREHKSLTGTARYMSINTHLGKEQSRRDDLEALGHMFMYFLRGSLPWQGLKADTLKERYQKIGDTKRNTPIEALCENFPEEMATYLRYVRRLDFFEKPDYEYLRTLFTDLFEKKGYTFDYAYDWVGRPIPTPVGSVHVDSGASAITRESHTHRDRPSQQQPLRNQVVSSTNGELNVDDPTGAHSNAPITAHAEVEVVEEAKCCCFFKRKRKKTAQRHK
UniProt P48730: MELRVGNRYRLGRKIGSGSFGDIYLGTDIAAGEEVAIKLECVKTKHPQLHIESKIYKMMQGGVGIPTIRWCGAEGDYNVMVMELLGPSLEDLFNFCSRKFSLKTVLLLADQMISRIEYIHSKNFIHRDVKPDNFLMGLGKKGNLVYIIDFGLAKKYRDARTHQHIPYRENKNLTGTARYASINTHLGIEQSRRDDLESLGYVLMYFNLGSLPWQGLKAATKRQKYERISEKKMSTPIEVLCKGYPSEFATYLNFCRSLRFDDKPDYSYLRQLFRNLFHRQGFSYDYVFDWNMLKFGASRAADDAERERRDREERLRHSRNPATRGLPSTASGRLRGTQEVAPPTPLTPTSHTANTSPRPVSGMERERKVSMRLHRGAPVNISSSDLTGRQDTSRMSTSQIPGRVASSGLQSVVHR
UniProt P49674: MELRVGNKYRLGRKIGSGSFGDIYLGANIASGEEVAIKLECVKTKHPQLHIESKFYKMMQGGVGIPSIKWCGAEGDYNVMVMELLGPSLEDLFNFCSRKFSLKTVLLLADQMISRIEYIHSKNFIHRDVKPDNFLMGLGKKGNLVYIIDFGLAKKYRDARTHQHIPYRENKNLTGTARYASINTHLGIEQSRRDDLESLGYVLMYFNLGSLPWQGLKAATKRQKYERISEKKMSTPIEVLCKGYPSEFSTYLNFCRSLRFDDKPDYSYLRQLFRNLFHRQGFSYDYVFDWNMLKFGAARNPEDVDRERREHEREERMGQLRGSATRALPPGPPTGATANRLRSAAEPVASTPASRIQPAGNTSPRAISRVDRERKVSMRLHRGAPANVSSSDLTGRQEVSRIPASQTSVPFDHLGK

Assay [1] addresses T1, AES (endogenous) (human (endogenous in HCT116)) (UniProt Q08117).
T1 sequence: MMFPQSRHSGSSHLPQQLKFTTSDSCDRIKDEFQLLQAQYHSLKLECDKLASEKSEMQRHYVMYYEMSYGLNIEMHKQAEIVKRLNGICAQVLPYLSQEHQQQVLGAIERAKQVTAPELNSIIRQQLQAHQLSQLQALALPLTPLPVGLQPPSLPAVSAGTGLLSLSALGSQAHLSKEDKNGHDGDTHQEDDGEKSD
The assay is described as follows: co-IP; endogenous proteins; HCT116 lysate (HT29 too in Figure 4B); IP with anti-AES antibody or IgG and protein A/G agarose at 4 °C; immunoblot. (In general: In western blotting, separated proteins are transferred to a membrane and probed.)

Assay [2] deals with Flag-SKP2 (Flag-tagged S phase kinase-associated protein 2) (UniProt Q13309). The assay is described as follows: condition: only cells depleted of CK1δ/ε by shRNA lentivirus; co-IP; HEK293T cells infected with shCK1δ/ε-1 or shCK1δ/ε-2 lentivirus, then transfected; IP with anti-Flag M2 beads.
Assay [3] shares this target. The assay is described as follows: condition: only cells treated with 0.25 μM IC261 or 2 μM PF670462 for 24 h; co-IP; HEK293T cells transfected, then treated with 0.25 μM IC261 or 2 μM PF670462 for 24 h; IP with anti-Flag M2 beads.
In assay [4] the target is Flag-CK1α (human) (UniProt P48729). The assay is described as follows: co-IP; HEK293T cells co-transfected; lysis in 20 mM Tris-HCl pH7.4, 150 mM NaCl, 1 mM EDTA, 1 mM EGTA, 1% Triton X-100; IP with anti-Flag M2 affinity gel or anti-V5 agarose at 4 °C; immunoblot; AES-V5 with Flag-SKP2 also tested with co-expressed kinase-dead dominant negative CK1δ/ε (interaction dramatically reduced).

The target in assay [5] is Flag-CK1γ1 (human) (UniProt Q9HCP0). The assay is described as above.
The target in assay [6] is Flag-CK1δ (human) (UniProt P48730). Described as above.
For assay [7], the target named is Flag-CK1ε (human) (UniProt P49674). Described as above.
The target of assay [8] is Flag-SKP2 (Flag-tagged S phase kinase-associated protein 2) (UniProt Q13309). Described as above.

Residue numbers refer to the chain shown, from its start. In names and notes the source's numbering stands. Results are given in words; binding and its absence hold for the method and conditions named. In cells and extracts the contact can be indirect. Some results given as binding are weak or reduced against the parent protein; the word gives no strength. For part of these data: Where a sequence is shown, tags or fusion partners need not be part of it.

In the case of “CK1ε (endogenous) (from UniProt P49674 1-416) (enzyme)”, the binding result in assay [1] is recorded as “binds”.

B1: AES-V5 (V5-tagged wild-type amino-terminal enhancer of split) (protein, UniProt Q08117 1-197)
chain: T1 sequence
For the molecule B1, the binding entry in assay [2] is given as “no binding”; in assay [3], “no binding”; in assay [4], “no binding”; in assay [5], “no binding”; in assay [6] it was “binds”; in assay [7], “binds”. Moreover, the binding result in assay [8] is on record as “binds”.

B2: GFP tagged wild-type AES, full length (protein, UniProt Q08117 1-197)
chain: T1 sequence
With B2, the binding entry in assay [6], in assay [7] and in assay [8] was “binds” each time.

B3: AES-V5 S121A mutant (protein, UniProt Q08117 1-197)
chain: T1 sequence with S121A
As to B3, in assay [8], the binding entry is “no binding”.
